In paper PMC5113665 (Angewandte Chemie (International Ed. in English), 2016):

Biological target: the molecule itself
Assay: SEC; gel-filtration profiles of the purified unligated and ligated CHK2 proteins

B1: pT68CHK2, ligation product containing CHK2 […] with a phosphorylated Thr-68 and a Ser-73 to Cys mutation (domain or fragment)
chain: not shown
modifications: phosphorylated Thr-68 (pT in LETVSpTQELY)
notes: synthetic peptide 15 (H-LETVSpTQELY-MPAA thioester), CHK2 residues 63-72; the sixth residue is phosphothreonine (Thr-68); CHK2 serine/threonine kinase, […] with N-terminal cysteine (S73C), prepared by expression; Semisynthetic protein; Expression host and tags of the […] portion may stand in the SI; also called phosphorylated CHK2 protein; ligated pT68CHK2; source: native chemical ligation of …
- stoichiometry N: 2
